Measured values reported in paper PMC9414551 (Pharmaceuticals, 2022).

Legend:
NR1-2B NMDAR [1] = target: T1, NR1-2B NMDAR (Homo sapiens, UniProt Q05586+Q13224); experiment: FLIPR Ca2+ assay, blocker concentration-response curve; type: cell-based; design: host or cells: CHO (CHO-hNR1-h2B), constitutive expression; settings: for Min. (%), minimal % Ca2+ influx in the presence of 100 μM blocker: 10 µM L-glutamate, no Mg2+; for Slope: logistic fit of blocker CRC
Text: (§1) CHO cell lines stably over-expressing heterodimeric NMDARs composed of human NR1 and 2 subunits were generated by Aptuit, an Evotec company (Verona, Italy). Cell line details are available at ExPASy Cellosaurus database. Research Resource Identifiers (RRIDs) are CVCL_B3TY, CVCL_B3TZ, CVCL_B3U0, and CVCL_B3U1 for CHO-hNR1-h2A, CHO-hNR1-h2B, CHO-hN1-h2C, and CHO-hN1-h2D, respectively. Protein accession numbers were NP_015566, NP_000824, NP_000825, NP_000826, and NP_000827 for NR1, 2A, 2B, 2C, and 2D, respectively. […] The four different heterodimeric NMDARs studied were NR1-2A, NR1-2B, NR1-2C, and NR1-2D. Cell lines were cultured for a maximum of 75 passages.
(§2) FLIPR assay allowed for indirect measurement of intracellular Ca^2+ concentration by means of a Ca^2+-sensitive fluorescent dye (Fluo-4) using the FLIPR instrument (Molecular Devices, San Jose, CA, USA). For these assays, 40 mM stock solutions of the test items were prepared in 100% dimethyl sulfoxide (DMSO), while glutamate and glycine 4 mM stock solutions were prepared in water. 384-well compound plates containing 400 × concentrated test item, glutamate, and glycine were prepared using Labcyte Echo acoustic dispensing system and stored at −20 °C until the day of the experiment.
(§3) Glycine 10 μM was always included in every test item addition.
(§4) Glycine was kept at a constant concentration of 10 μM during experiments.

NR1-2B NMDAR [2] = target: T1, NR1-2B NMDAR; experiment: cell-based; design: host or cells: CHO (CHO-hNR1-h2B), constitutive expression; settings: read-out: L-glutamate Max. (maximal asymptote) in the presence of test item
NR1-2C NMDAR [3] = target: T2, NR1-2C NMDAR (Homo sapiens, UniProt Q05586+Q14957); experiment: FLIPR Ca2+ assay, blocker concentration-response curve; type: cell-based; design: host or cells: CHO (CHO-hN1-h2C), tetracycline-induced expression; settings: for Min. (%), minimal % Ca2+ influx in the presence of 100 μM blocker: 10 µM L-glutamate, no Mg2+; for Slope: logistic fit of blocker CRC
Text: as §1, §2, §3, §4

NR1-2D NMDAR [4] = target: T3, NR1-2D NMDAR (Homo sapiens, UniProt O15399+Q05586); experiment: as above; type: cell-based; design: host or cells: CHO (CHO-hN1-h2D), tetracycline-induced expression; settings: for Min. (%), minimal % Ca2+ influx in the presence of 100 μM blocker: 10 µM L-glutamate, no Mg2+; for Slope: logistic fit of blocker CRC
T3 sequence (O15399 28-1336, other chains not shown): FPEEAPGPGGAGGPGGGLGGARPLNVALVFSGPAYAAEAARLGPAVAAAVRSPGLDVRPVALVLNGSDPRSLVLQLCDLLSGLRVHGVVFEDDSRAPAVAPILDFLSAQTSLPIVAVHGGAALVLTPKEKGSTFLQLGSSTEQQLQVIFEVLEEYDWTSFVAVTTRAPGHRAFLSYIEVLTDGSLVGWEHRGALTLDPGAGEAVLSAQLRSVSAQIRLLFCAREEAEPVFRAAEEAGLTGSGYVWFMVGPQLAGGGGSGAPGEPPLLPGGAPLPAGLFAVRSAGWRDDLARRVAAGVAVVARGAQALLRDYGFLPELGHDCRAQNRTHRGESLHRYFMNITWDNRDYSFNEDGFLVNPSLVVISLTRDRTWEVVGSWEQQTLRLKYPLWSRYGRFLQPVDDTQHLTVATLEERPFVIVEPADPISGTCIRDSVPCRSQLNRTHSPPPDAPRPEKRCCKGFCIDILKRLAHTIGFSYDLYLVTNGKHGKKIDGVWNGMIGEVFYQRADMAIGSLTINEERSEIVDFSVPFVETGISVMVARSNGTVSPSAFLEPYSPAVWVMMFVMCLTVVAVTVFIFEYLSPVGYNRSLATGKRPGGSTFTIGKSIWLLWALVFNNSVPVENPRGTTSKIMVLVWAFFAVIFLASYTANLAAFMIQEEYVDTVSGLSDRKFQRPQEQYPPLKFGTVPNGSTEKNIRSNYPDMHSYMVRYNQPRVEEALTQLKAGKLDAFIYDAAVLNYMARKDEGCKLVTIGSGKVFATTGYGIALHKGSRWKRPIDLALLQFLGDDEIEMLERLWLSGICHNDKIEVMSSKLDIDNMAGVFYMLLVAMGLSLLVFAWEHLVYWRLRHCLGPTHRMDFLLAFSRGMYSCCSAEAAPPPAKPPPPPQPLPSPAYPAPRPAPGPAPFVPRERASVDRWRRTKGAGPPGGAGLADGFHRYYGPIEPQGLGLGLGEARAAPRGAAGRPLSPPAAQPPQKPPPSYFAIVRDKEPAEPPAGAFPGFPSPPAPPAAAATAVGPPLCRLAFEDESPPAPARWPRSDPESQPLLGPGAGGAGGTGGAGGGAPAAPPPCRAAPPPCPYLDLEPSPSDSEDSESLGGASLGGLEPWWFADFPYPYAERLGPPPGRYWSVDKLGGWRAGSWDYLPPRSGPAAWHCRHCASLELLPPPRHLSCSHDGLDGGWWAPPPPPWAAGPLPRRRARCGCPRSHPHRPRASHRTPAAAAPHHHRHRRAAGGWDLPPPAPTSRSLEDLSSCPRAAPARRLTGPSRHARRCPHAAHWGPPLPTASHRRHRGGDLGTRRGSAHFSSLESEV
Text: as §1, §2, §3, §4

NR1-2C NMDAR [5] = target: T2, NR1-2C NMDAR; experiment: cell-based; design: host or cells: CHO (CHO-hN1-h2C), tetracycline-induced expression; settings: read-out: L-glutamate Max. (maximal asymptote) in the presence of test item
NR1-2D NMDAR [6] = target: T3, NR1-2D NMDAR; experiment: cell-based; design: host or cells: CHO (CHO-hN1-h2D), tetracycline-induced expression; settings: read-out: L-glutamate Max. (maximal asymptote) in the presence of test item
NR1-2A NMDAR [7] = target: T4, NR1-2A NMDAR (Homo sapiens, UniProt Q05586+Q12879); experiment: FLIPR Ca2+ assay, blocker concentration-response curve; type: cell-based; design: host or cells: CHO (CHO-hNR1-h2A), tetracycline-induced expression; settings: for Min. (%), minimal % Ca2+ influx in the presence of 100 μM blocker: 10 µM L-glutamate, no Mg2+; for Slope: logistic fit of blocker CRC
T4 sequence (Q12879 23-1464, other chains not shown): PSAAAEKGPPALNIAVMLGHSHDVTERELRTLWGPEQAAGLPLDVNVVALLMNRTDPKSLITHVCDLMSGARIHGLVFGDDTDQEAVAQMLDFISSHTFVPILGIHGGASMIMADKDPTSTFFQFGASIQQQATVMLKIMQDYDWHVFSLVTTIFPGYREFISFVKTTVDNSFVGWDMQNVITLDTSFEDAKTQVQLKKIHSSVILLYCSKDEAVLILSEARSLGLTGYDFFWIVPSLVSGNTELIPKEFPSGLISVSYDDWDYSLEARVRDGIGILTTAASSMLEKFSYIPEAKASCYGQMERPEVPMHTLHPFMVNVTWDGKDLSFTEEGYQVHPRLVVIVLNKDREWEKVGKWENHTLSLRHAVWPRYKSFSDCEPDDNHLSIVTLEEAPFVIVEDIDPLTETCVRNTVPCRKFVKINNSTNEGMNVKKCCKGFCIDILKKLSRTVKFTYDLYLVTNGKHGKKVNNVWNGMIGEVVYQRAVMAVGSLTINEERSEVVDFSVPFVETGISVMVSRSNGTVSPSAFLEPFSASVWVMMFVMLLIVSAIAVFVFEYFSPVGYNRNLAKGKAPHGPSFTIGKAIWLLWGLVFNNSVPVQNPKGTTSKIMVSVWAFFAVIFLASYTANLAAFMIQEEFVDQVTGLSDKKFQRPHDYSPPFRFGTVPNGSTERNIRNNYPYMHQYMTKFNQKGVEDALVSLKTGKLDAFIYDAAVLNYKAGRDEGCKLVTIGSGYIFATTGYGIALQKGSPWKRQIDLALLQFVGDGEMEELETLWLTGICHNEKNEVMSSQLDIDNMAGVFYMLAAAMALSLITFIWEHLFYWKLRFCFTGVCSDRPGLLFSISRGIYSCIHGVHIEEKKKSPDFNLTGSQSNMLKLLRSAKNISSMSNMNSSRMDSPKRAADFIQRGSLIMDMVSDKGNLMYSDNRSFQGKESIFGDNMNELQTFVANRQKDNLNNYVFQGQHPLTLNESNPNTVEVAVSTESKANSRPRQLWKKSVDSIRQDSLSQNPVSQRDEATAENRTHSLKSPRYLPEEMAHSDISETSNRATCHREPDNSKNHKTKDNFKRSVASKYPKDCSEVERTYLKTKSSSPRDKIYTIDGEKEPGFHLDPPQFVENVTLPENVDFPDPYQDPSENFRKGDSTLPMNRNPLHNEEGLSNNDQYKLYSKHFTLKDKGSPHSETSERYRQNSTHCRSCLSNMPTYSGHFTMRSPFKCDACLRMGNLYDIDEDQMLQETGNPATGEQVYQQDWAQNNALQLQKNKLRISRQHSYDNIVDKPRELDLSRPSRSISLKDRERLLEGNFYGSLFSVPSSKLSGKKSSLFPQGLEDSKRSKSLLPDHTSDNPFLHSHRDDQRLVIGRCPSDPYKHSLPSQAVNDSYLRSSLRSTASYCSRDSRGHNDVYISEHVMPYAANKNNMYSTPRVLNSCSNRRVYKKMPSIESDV
Text: as §1, §2, §3, §4

NR1-2A NMDAR [8] = target: T4, NR1-2A NMDAR; experiment: cell-based; design: host or cells: CHO (CHO-hNR1-h2A), tetracycline-induced expression; settings: read-out: L-glutamate Max. (maximal asymptote) in the presence of test item
NR1-2C NMDAR [9] = target: T2, NR1-2C NMDAR; experiment: Whole-cell manual patch-clamp: current block, onset/offset kinetics and trapping, no Mg2+; settings: −70 mV; for I1 (% Current) at end of test item addition, normalized to I0: 30 s co-application; for I2 (% Current) at end of test item removal, normalized to I0: 50 s after removal; for reduction of L-glutamate/glycine-elicited NR1-2C current: 10 µM L-glutamate + 10 µM glycine, no Mg2+

T1 sequence (Q13224 27-1484, other chains not shown): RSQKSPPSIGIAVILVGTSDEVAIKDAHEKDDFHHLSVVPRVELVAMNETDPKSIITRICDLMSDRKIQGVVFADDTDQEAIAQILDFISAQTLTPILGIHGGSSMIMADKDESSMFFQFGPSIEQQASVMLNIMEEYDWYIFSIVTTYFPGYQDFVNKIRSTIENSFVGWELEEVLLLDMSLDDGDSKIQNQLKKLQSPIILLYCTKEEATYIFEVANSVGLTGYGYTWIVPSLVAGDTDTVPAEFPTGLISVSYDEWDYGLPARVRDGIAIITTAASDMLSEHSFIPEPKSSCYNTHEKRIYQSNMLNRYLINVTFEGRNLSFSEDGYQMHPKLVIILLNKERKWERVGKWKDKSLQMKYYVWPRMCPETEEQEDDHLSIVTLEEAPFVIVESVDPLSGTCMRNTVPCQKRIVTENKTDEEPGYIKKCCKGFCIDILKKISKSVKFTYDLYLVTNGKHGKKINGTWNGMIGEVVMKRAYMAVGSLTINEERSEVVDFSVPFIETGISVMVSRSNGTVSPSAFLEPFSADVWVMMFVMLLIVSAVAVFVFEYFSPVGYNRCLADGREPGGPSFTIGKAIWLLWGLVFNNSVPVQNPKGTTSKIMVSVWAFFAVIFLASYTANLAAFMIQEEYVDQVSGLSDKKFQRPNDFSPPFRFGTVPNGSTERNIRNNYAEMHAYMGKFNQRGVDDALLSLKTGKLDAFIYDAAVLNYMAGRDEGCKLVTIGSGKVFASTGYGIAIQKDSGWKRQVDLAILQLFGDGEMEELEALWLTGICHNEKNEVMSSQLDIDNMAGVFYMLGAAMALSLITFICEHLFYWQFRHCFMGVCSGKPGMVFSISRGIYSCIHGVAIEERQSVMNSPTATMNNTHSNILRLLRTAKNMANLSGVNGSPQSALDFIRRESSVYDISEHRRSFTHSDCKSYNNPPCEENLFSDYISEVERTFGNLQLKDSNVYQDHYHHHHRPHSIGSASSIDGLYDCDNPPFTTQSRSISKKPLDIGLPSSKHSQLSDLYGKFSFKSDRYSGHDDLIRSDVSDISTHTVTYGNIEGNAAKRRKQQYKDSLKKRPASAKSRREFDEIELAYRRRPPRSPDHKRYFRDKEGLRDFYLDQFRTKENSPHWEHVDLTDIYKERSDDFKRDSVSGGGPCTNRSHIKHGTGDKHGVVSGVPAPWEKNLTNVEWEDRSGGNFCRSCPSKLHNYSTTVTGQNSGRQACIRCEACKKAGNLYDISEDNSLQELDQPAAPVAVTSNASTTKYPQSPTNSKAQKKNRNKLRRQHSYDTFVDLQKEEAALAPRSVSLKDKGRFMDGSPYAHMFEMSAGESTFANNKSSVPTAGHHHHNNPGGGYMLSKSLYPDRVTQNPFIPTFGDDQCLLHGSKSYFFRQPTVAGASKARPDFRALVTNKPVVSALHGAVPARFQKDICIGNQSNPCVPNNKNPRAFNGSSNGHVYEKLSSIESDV

## CNC1(c2ccccc2Cl)CCCCC1=O (racemic) [(±)-Ketamine, (±)-ketamine]
NR1-2B NMDAR [1]
  Min. (%), minimal % Ca2+ influx in the presence of 100 μM blocker: 8%
  Slope: −0.78
NR1-2B NMDAR [2]
  remaining activity at 0.049 µM: 98%
  remaining activity at 0.195 µM: 92%
  remaining activity at 0.781 µM: 80%
  remaining activity at 3.1 µM: 70%
  remaining activity at 12.5 µM: 44%
  remaining activity at 50 µM: 24%
NR1-2C NMDAR [3]
  Min. (%), minimal % Ca2+ influx in the presence of 100 μM blocker: 8%
  Slope: −0.83
NR1-2D NMDAR [4]
  Min. (%), minimal % Ca2+ influx in the presence of 100 μM blocker: 12%
  Slope: −1.1
NR1-2C NMDAR [5]
  remaining activity at 0.049 µM: 97%
  remaining activity at 0.195 µM: 95%
  remaining activity at 0.781 µM: 80%
  remaining activity at 3.1 µM: 65%
  remaining activity at 12.5 µM: 20%
  remaining activity at 50 µM: 6.2%
NR1-2D NMDAR [6]
  remaining activity at 0.049 µM: 98%
  remaining activity at 0.195 µM: 97%
  remaining activity at 0.781 µM: 93%
  remaining activity at 3.1 µM: 81%
  remaining activity at 12.5 µM: 45%
  remaining activity at 50 µM: 7.1%
NR1-2A NMDAR [7]
  Min. (%), minimal % Ca2+ influx in the presence of 100 μM blocker: 23%
  Slope: −0.76
NR1-2A NMDAR [8]
  remaining activity at 0.049 µM: 100%
  remaining activity at 0.195 µM: 96%
  remaining activity at 0.781 µM: 97%
  remaining activity at 3.1 µM: 87%
  remaining activity at 12.5 µM: 66%
  remaining activity at 50 µM: 38%
NR1-2C NMDAR [9]; test item 1 µM, NR1-2C
  I1 (% Current) at end of test item addition, normalized to I0: 28.7%
  I2 (% Current) at end of test item removal, normalized to I0: 95.5%
  B (initial block): 74 ± 1% and 74.0 ± 1.2%
  BT (trapped block, BR/B × 100): 86.7 ± 1.8%
  Tau off: 15.2 ± 0.63 s
  Tau on: 4.7 ± 0.14 s
NR1-2C NMDAR [9]; test item 1 µM, after wash with glycine alone, NR1-2C
  BR (residual block): 64.1 ± 1.3
NR1-2C NMDAR [9]; test item 3 μM
  reduction of L-glutamate/glycine-elicited NR1-2C current: 90% and 89.7 ± 0.6%
NR1-2C NMDAR [9]; test item 10 μM
  reduction of L-glutamate/glycine-elicited NR1-2C current: 97% and 97.2 ± 0.3%
NR1-2C NMDAR [9]; test item 10 µM, NR1-2C
  I1 (% Current) at end of test item addition, normalized to I0: 3.6%
  I2 (% Current) at end of test item removal, normalized to I0: 102.9%
  Tau off: 17.2 ± 3.0 s
  Tau on: 0.99 ± 0.05 s and 0.99 ± 0.050 s

## C[C@]12N[C@H](Cc3ccccc31)c1ccccc12 [MK-801, dizocilpine]
NR1-2B NMDAR [1]
  Min. (%), minimal % Ca2+ influx in the presence of 100 μM blocker: 4%
  Slope: −0.94
NR1-2C NMDAR [3]
  Min. (%), minimal % Ca2+ influx in the presence of 100 μM blocker: 7%
  Slope: −1.0
NR1-2D NMDAR [4]
  Min. (%), minimal % Ca2+ influx in the presence of 100 μM blocker: 11%
  Slope: −1.2
NR1-2A NMDAR [7]
  Min. (%), minimal % Ca2+ influx in the presence of 100 μM blocker: 4%
  Slope: −0.69

## CC12CC3CC(C)(C1)CC(N)(C3)C2 [Memantine, memantine]
NR1-2B NMDAR [1]
  Min. (%), minimal % Ca2+ influx in the presence of 100 μM blocker: 11%
  Slope: −0.86
NR1-2C NMDAR [3]
  Min. (%), minimal % Ca2+ influx in the presence of 100 μM blocker: 13%
  Slope: −0.82
NR1-2D NMDAR [4]
  Min. (%), minimal % Ca2+ influx in the presence of 100 μM blocker: 18%
  Slope: −0.88
NR1-2A NMDAR [7]
  Min. (%), minimal % Ca2+ influx in the presence of 100 μM blocker: 29%
  Slope: −0.82

Where “and” joins values, the source holds several entries; their conditions need not be identical. Equal values may be shown once.
